Data published in PubChem BioAssay AID2546 (National Center for Advancing Translational Sciences (NCATS), 2010).
Among all 310,000 compounds or so, about 11,000 (3.5%) were called active. Inconclusive results, whose numbers are uncertain, are shown with a selection of clear calls. Calls come from the whole dose curve; as a rule, active = well fitted inhibition curve with a large enough effect; inconclusive = small, poorly fitted or top-dose-only effect, or effect the other way; inactive = flat fitted curve, though single readings scatter. No potency is given beside an inconclusive call; the fits are too rough.

Assay: VP16 counterscreen qHTS for inhibitors of ROR gamma transcriptional activity;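 note: Gal4-VP16 expression switched on by copper sulfate through the metallothionein promoter; nearly all actives have a fitted effect of over 50% in size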
Conditions: Drosophila S2 Gal4-VP16 UAS-luciferase, luminescence, 20 h; series mostly up to 53.6 µM
Potency is the fitted concentration of half-maximal effect; tags give direction and shape of the fitted curve.

Structure (SMILES)	Potency
S=C(NCc1ccco1)N/N=C/c1ccncc1	inconclusive [inhibitor, single point]
CCOc1ccccc1NC(=S)NCCc1ccc(F)cc1	active: 10 µM
CSC(=NC#N)N1CCN(c2ccc(Cl)cc2)CC1	inconclusive [inhibitor, full curve]
CSc1ncccc1C(=O)NCCc1ccccc1F	inactive
Cc1cccc(-n2c(CCc3ccccc3)nnc2SCC(=O)c2ccccc2)c1	active: 11.2 µM
Cc1cccc(-c2noc(CCCC(=O)Nc3ccc(C(N)=O)cc3)n2)c1	active: 11.2 µM
COC(c1ccccc1)c1nnc(CCC(=O)N(C)CCOc2ccccc2)o1 (stereo unspecified)	inconclusive [activator, single point]
CC1=NN(Cc2ccccc2)C(=O)/C1=C\c1ccc(N(C)C)cc1	inconclusive [activator, single point]
CCOc1ccc(NC(=S)Nc2cc(-c3ccccc3)[nH]n2)cc1	active: 3.55 µM
CC1(C)c2ccccc2N2CC(=O)NC21/C=C/c1ccco1 (stereo unspecified)	inconclusive [inhibitor, single point]
COc1ccc(-c2c3c(=O)n(C)c(=O)n(C)c3cn2-c2ccc(O)cc2)cc1	inconclusive [inhibitor, partial curve]
CC12CCC=CC1C(c1ccc(/C=C/c3ccccc3)cc1F)N(Cc1ccccc1)C2=O (stereo unspecified)	inactive
COc1ccc(CCNC(=S)Nc2ccccc2)cc1	active: 7.08 µM
CC(Oc1ccc(Cl)cc1Cl)C(=O)Nc1cccnc1 (stereo unspecified)	inconclusive [inhibitor, single point]
C=CCN1C=CC(=C/C=C(/C#N)C(=O)OCC)C=C1	inconclusive [inhibitor, partial curve]
Cc1ccc(NC(=O)NCc2c(C)nn(C)c2C)cc1Cl	inconclusive [activator, full curve]
O=C(Cc1ccc(-c2ccccc2)cc1)NCc1ccccc1	inactive
CC(C)(C)Sc1ccc2nc3c(n2c1)CCCC3	active: 11.2 µM
COc1cc(Cl)c(C)cc1NC(=O)CSC	inactive
CC(=O)Nc1ccc(Nc2cc(C)nc3c(-c4ccc(Cl)cc4)c(C)nn23)cc1	active: 7.08 µM
O=C(NCc1ccccn1)c1ccc2ccccc2n1	active: 10 µM
O=[N+]([O-])c1cc(-c2nnc(N3CCOCC3)c3ccccc23)ccc1N1CCOCC1	inactive
CCc1ccccc1N(CC(=O)NC(C)(C)C)C(=O)CCC(=O)Nc1ccccn1	inactive
O=C(Nc1nnc(SCc2ccc(Cl)cc2)s1)C1CCCO1 (stereo unspecified)	inconclusive [inhibitor, single point]
CC(=O)N1[C@H](C)C=C[C@]1(Cc1ccccc1)C(=O)NCc1ccc(C)o1	inconclusive [inhibitor, single point]
CCCC(C)C(=O)Nc1nc(C)c(-c2csc(Nc3ccccc3OC)n2)s1 (stereo unspecified)	inconclusive [inhibitor, single point]

Structure (SMILES)	Potency
COc1ccccc1NC(CC(=O)c1ccccc1)C(=O)OCC(=O)c1ccc(Br)cc1 (stereo unspecified)	inconclusive [inhibitor, single point]
O=C(CC1SC(=O)N(c2ccccc2)C1=O)Nc1ccc(Cl)cc1 (stereo unspecified)	inactive
CC1CCCCC1NC(=O)COC(=O)c1c2c(nc3ccccc13)/C(=C/c1ccco1)CC2 (stereo unspecified)	inactive
O=S(=O)(NCC(Nc1ccccc1)c1ccccc1)c1ccc(Cl)cc1 (stereo unspecified)	inconclusive [inhibitor, single point]
CCCCCCCCCn1c2c(c(=N)c3c1CCC3)CCCC2	inconclusive [inhibitor, full curve, poor fit]
Cc1c(CC(=O)O)c(=O)oc2cc3occ(-c4ccccc4)c3cc12	inactive
O=C(NN=C1CCCC1)c1[nH]c2ccc(Br)cc2c1-c1ccccc1	inconclusive [inhibitor, single point]
O=C(N/N=C/c1[nH]c2ccccc2c1Cl)c1cccc(Br)c1	active: 7.94 µM
Cc1cccc(/C=N/c2sc3c(c2C#N)CCN(Cc2ccccc2)C3)c1O	inconclusive [activator, single point]
CC1CCC(NS(=O)(=O)c2ccc(N3CCCC3=O)cc2)CC1 (stereo unspecified)	inconclusive [inhibitor, single point]
O=C(NC(C(=O)c1ccccc1)N1CCOCC1)c1cccs1 (stereo unspecified)	inconclusive [activator, single point]
Cc1[nH]nc(-c2ccc(OCc3cnn(-c4ccccc4)c3)c(C)c2O)c1Oc1ccccc1	inconclusive [inhibitor, single point]
O=C(NC(=S)NNC(=O)c1cnccn1)c1ccc(F)cc1	inactive
Cc1ccc[n+](CC(=O)N2CCCCC2)c1C	inactive
CCOc1cc(/C=C2\C(=O)ON=C2c2ccccc2)cc(Br)c1O	inconclusive [inhibitor, single point]
Cc1ccc(Cl)cc1N1C(=O)CC(Sc2ncccn2)C1=O (stereo unspecified)	inconclusive [inhibitor, single point]
COc1ccc(/C=N/NC(=O)c2cccc([N+](=O)[O-])c2)cc1OS(=O)(=O)c1ccccc1	inconclusive [inhibitor, single point]
CCOc1cc2c(C#N)c(N3CCCCC3)nc(N)c2c(N)n1	inactive
O=[N+]([O-])c1cccc(NC(=S)Nc2nc(-c3ccc(Cl)cc3Cl)cs2)c1	active: 3.16 µM
C/C(=N\Nc1nc2c(s1)CCCC2)c1ccccc1	inconclusive [inhibitor, single point]
C[C@]12CC[C@@H]3c4ccc(O)cc4CC[C@H]3[C@@H]1C[C@@H](O)[C@@H]2O	inactive
CC1CCN(c2oc(-c3ccccc3F)nc2C#N)CC1	inconclusive [activator, partial curve, poor fit]
CCCn1c(N2CCN(CC(=O)c3c(C)n(C)c4ccc(OC)cc34)CC2)nc2c1c(=O)[nH]c(=O)n2C	inconclusive [inhibitor, single point]
Cn1cnc2cc(NC(=O)c3ccco3)ccc21	inconclusive [inhibitor, partial curve]
Cc1ccn2c(Nc3ccc4c(c3)OCO4)c(-c3ccc(O)cc3)nc2c1	inactive
CN(C(=O)c1ccccc1)c1nccnc1C#N	inactive

Structure (SMILES)	Potency
C/C=C\C=C/C(=O)Nc1cccc(C2=NOC3(C2)C[C@@H](C(N)=O)N(C(=O)[C@H]2CCC(=O)N2)C3)c1 (stereo partly specified)	inactive
COc1cccc(-c2csc(N3CCN(C(=S)Nc4ccccc4C)CC3)n2)c1	inconclusive [inhibitor, single point]
O=C(Nc1ccc(Cl)c(Cl)c1)Nc1ccccn1	inconclusive [activator, partial curve, poor fit]
O=C(NC1CCN(S(=O)(=O)c2ccc(Cl)cc2)CC1)C1CCCCC1	inactive
COc1ccc(C(=O)Nc2nc3ccc(OC)cc3s2)cc1	active: 4.47 µM
CC(C)C[C@H](NC(=O)c1nc[nH]c1C(=O)N1CCN(C(=O)OC(C)(C)C)CC1)C(=O)OC(C)(C)C	inconclusive [inhibitor, single point]
O=C(Cn1c(NCCCO)nc2ccccc21)c1ccco1	inactive
COc1ccccc1-c1cc(C(=O)N/N=C/c2cccs2)c2ccccc2n1	active: 5.62 µM
OC(CNCc1ccccc1F)(c1ccc(F)cc1)c1ccc(F)cc1	inconclusive [inhibitor, single point]
O=[N+]([O-])c1nn(-c2ccc3c(c2)OCCO3)n(O)c1=NC1CCCCC1	inconclusive [inhibitor, single point]
O=C(Nc1ccc2c(c1)CCCN2C(=O)c1ccccc1)c1ccccc1	inactive
COC(=O)[C@@]1(Cc2ccccc2)[C@H]2c3cc(C(=O)N(C)C)n(Cc4ccc(OC)c(OC)c4)c3C[C@H]2CN1C(=O)c1ccccc1	inactive
O=C1CCC(C(=O)N2CCCCCC2)CN1Cc1cccc(C(F)(F)F)c1 (stereo unspecified)	inactive
Cc1ccc(/C=N/Nc2cc(C)nc(NCc3ccccc3)n2)cc1	inconclusive [inhibitor, single point]
COc1cc(C(=O)ON=C2C3CC4CC(C3)CC2C4)cc(OC)c1OC	inconclusive [inhibitor, partial curve]
O=C(CN1CCOCC1)N/N=C/c1ccc(C(=O)O)cc1	inactive
CN(CCc1ccccn1)C(=S)NC(=O)c1ccco1	inconclusive [inhibitor, single point]
Cc1cc(Nc2nnnn2-c2ccccc2)n(-c2ccc(Cl)cc2)n1	inconclusive [inhibitor, single point]
Oc1ccc(N=Nc2ccccc2)o1	active: 15.8 µM
Cc1c(CCC(=O)O)c(=O)oc2cc3occ(-c4ccccc4)c3cc12	inconclusive [inhibitor, partial curve]
CCCC1(CCC)C(=O)NC(=NCCc2ccc(OC)c(OC)c2)NC1=O	inconclusive [activator, single point]
CCCCNc1nc2c(c(=O)n(C)c(=O)n2C)n1Cc1cccc(OC)c1	active: 4.47 µM
COc1ccc(OCc2nc3ccccc3n2C(C)C)cc1	inconclusive [inhibitor, single point]
Cc1ccc(C2(C)CC(C)(C)N(C(=O)CSc3nnc(C)s3)c3ccccc32)cc1 (stereo unspecified)	inactive
